Biological target: T1, Taspase-1 in transfected HEK-293T cells (Homo sapiens, UniProt Q9H6P5)
T1 sequence (Q9H6P5 1-233 limits assumed): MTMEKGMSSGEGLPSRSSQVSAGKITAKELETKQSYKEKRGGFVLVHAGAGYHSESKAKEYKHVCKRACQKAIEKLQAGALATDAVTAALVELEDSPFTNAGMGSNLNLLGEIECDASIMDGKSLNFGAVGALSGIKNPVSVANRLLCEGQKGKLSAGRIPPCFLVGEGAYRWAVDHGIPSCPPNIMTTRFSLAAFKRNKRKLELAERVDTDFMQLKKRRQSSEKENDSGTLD
T1 sequence (Q9H6P5 234-420 limits assumed): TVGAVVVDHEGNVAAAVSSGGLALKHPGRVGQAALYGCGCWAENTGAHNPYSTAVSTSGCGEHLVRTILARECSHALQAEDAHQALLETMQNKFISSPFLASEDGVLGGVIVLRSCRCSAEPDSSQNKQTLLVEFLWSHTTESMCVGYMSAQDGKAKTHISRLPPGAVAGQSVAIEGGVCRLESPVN
Assay: cell-based

SMILES | IC50 [µM]
C=CS(=O)(=O)N1CCN(Cc2ccc(OC(F)(F)F)c(F)c2)[C@@H](COCc2cn[nH]c2)C1 [SMDC203, (R)-2-(((1H-pyrazol-4-yl)methoxy)methyl)-1-(3-fluoro-4-(trifluoromethoxy)benzyl)-4-(vinylsulfonyl)piperazine] | 2.3
C=CS(=O)(=O)N1CCN(Cc2ccc(OC(F)(F)F)c(F)c2)[C@@H](CCO)C1 [SMDC069, 2-[(2S)-4-(ethenesulfonyl)-1-{[3-fluoro-4-(trifluoromethoxy)phenyl]methyl}piperazin-2-yl]ethan-1-ol] | 2 to 6

Reference: patent US20230052528A1 (priority 2019, published 2023)
